The full ranking holds about 33,000 sequences; the median of “E-score (-0.5 to 0.5)” is about -0.021, and the highest 2% start at about 0.32. This is one part of the list.
Biological target: T1, Zap1 (UniProt P47043)
T1 sequence: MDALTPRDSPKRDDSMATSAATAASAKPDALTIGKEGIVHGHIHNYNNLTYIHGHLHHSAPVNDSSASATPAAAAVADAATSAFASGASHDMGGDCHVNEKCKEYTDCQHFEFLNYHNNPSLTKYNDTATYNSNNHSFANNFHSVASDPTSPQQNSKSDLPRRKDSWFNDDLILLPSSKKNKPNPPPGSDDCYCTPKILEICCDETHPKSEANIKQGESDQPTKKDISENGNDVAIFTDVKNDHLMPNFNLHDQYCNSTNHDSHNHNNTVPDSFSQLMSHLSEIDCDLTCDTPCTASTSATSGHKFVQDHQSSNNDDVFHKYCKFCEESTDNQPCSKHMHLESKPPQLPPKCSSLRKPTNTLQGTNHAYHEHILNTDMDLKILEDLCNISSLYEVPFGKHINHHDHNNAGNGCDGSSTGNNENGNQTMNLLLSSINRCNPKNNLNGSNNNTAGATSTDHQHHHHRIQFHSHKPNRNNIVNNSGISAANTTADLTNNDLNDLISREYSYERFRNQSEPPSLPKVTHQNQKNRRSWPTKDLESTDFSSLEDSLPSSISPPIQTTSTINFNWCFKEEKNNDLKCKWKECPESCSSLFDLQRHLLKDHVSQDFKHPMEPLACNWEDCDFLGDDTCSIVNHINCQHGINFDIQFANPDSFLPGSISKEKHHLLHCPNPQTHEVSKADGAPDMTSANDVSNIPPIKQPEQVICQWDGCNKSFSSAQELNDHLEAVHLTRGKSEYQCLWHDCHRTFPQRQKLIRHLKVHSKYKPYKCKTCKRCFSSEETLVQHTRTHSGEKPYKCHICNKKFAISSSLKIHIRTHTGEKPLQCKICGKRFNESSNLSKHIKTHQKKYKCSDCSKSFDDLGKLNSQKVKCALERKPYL
Assay: PBM E-score (8-mer binding enrichment) (E-score (-0.5 to 0.5)); higher = stronger / more preferred TF binding; most listed sequences are background and not binding sites
Conditions: protein concentration: 200 nM; construct: GST-full length
Method in brief: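 E-scores (a modified Wilcoxon-Mann-Whitney statistic) were assigned by the Universal PBM Analysis Suite to every ungapped eight-base word pooled with its reverse complement. The input came from universal all-10-mer Agilent arrays made double-stranded by primer extension and probed with GST-tagged yeast transcription factors at about 100-200 nM. Fluorescent anti-GST detected bound protein, and masliner normalised the scans.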

Row | Sequence | PBM E-score
1 | AACCTGTC | -0.058
2 | CTGATGAA | 0.0655
3 | TGTAATAA | 0.133
4 | ATTCGACC | 0.0544
5 | CGCGTTCC | -0.0832
6 | CATGCCAC | -0.227
7 | AACAAGAG | -0.0627
8 | CTTTCACA | 0.165
9 | AAAATTAA | 0.102
10 | GCGGCCTA | -0.0186
11 | CTACTCAG | -0.0932
12 | CTAAGGGA | -0.0456
13 | TACGTGAA | 0.101
14 | AGCGGTCC | -0.0117
15 | AATGCCTG | -0.208
16 | TATCGCCA | -0.00426
17 | CATCACAA | 0.00512
18 | ATAAGTTC | 0.0418
19 | CCCGACGG | 0.192
20 | TATCGACA | 0.0537
21 | ACAAGTCT | -0.0566
22 | GAACTACA | 0.0148
23 | GTGATCCA | -0.0844
24 | AGACATAT | 0.00709
25 | CACTCGTC | -0.17

Row | Sequence | PBM E-score
26 | AAAGCCGG | 0.0494
27 | AGCGGCGC | -0.173
28 | CGACATCA | -0.0864
29 | GGGAGCCA | -0.142
30 | AGATAGTA | 0.128
31 | GCCCTTAA | 0.112
32 | GAAGGGTC | 0.211
33 | AGGTTTGG | 0.0078
34 | ACAAGTCC | -0.0469
35 | ATCTAGAT | 0.246
36 | CAGTGCCA | -0.262
37 | ATCAGTCA | -0.0936
38 | ATGAACTC | -0.149
39 | CTCTTAGC | 0.0564
40 | GAATAACA | 0.181
41 | AAATTGCG | 0.0122
42 | AATAGACA | -0.162
43 | AGGAGAAA | -0.28
44 | CTCTATGA | 0.0051
45 | GACCACTA | 0.0858
46 | GTGTACAA | 0.14
47 | ACCGGAGT | 0.0636
48 | GGCTTTAC | -0.132
49 | AAGCCATA | -0.124
50 | ACGCTCCC | -0.291

Row | Sequence | PBM E-score
51 | GAACGGTC | -0.0968
52 | TCTTTTCA | 0.0888
53 | AGGAAAAT | 0.0468
54 | ATTACCAC | 0.243
55 | AATATATC | 0.039
56 | GAAGCTTA | -0.0597
57 | AACTGACA | 0.0328
58 | CTATGTAC | -0.0102
59 | CGGCACCA | 0.00664
60 | GAGACGGC | -0.08
61 | AACTAATC | -0.0851
62 | GATTAAGA | 0.13
63 | GGATCAGA | -0.227
64 | AATACCAA | 0.0327
65 | GGTCGAAC | 0.059
66 | GGTAGTAA | 0.078
67 | AAGGTCGA | 0.176
68 | AGATTGCG | 0.0227
69 | GTATCTCA | 0.0772
70 | GCGCGCTA | -0.00912
71 | CACCGTCA | -0.0649
72 | AATCAGAC | -0.0167
73 | CAGAGCTG | -0.158
74 | CTGGGAAA | 0.0242
75 | AGTCATAA | -0.064

Row | Sequence | PBM E-score
76 | GGAGAAAA | -0.0355
77 | TCATCTAA | 0.127
78 | AGATGACA | -0.0613
79 | TATCCGGA | 0.0937
80 | CCACAACG | 0.0128
81 | GCCGTAAA | 0.0721
82 | GCCATGCA | -0.115
83 | ATTCTTTA | 0.0765
84 | CATCCACG | 0.0264
85 | CAATCGTG | -0.131
86 | CCGGGGCG | 0.0268
87 | CCTAATAC | 0.0529
88 | ACGGAACG | -0.172
89 | ACTAGTTA | 0.104
90 | GTCTAGTA | 0.205
91 | ATGGCTGC | -0.0665
92 | TCAGAAGA | -0.157
93 | CTTATAAA | 0.0799
94 | CGCAAACA | 0.0305
95 | CAAATAGC | -0.0959
96 | CTCCTGTA | -0.0674
97 | CCCCTTGC | -0.0145
98 | CAGTGGCC | 0.0773
99 | ACGACCGC | -0.0278
100 | CATAATAG | 0.0641

Row | Sequence | PBM E-score
101 | CGGGCAAC | -0.226
102 | GTACCACA | 0.282
103 | AGCTTCAT | -0.0699
104 | CGACCCGC | -0.0198
105 | CCATATCA | -0.0321
106 | GTTTTTTA | 0.257
107 | ACGCCTGG | -0.118
108 | CCGGTAGG | 0.0542
109 | GCTTCTCA | -0.212
110 | CACTCGGC | -0.179
111 | AACTACTC | 0.0879
112 | CCTCGGGA | -0.0412
113 | AGTCTTTC | -0.227
114 | ATGCACCA | -0.0934
115 | AACTTTAC | -0.0435
116 | AAGCGAAT | -0.0307
117 | GGATACCC | 0.393
118 | CGCGTCCA | -0.232
119 | CGCCTTTC | -0.157
120 | ATAAATGA | 0.126
121 | TAATTGAA | 0.0645
122 | AGACGAAA | 0.0482
123 | CCAGCGCC | -0.276
124 | CGAGATCG | -0.114
125 | GATCCCGC | -0.0967

Row | Sequence | PBM E-score
126 | AATCCCAT | -0.0451
127 | CCGAGTCC | -0.129
128 | AAGATGCA | 0.0988
129 | ACGGTACC | 0.399
130 | ATGTACAA | 0.114
131 | ACAATATA | 0.176
132 | CTCCAGTA | -0.049
133 | CTATGCAA | 0.00525
134 | CGCTCCTC | -0.311
135 | ACTGCCAT | 0.113
136 | TAACCAGA | 0.314
137 | CGTTCCGA | -0.0199
138 | ACCGGGAT | -0.00572
139 | ACCCTACG | 0.361
140 | AGTCATAC | -0.0188
141 | GCACATCC | -0.0416
142 | GTCGCAAA | -0.0278
143 | GGGAGGCA | -0.289
144 | ATCCTCTC | -0.0369
145 | AGGCTGTA | 0.00164
146 | ACAAAGAT | 0.0424
147 | CGTACCCC | 0.18
148 | ACATTATC | -0.0315
149 | AATTCCTA | 0.0396
150 | CTAGGCAG | -0.185

Row | Sequence | PBM E-score
151 | CCACAACA | 0.109
152 | ACACCGGT | 0.0627
153 | ACATGGAA | 0.0796
154 | GAGTCACA | 0.03
155 | CGACCAGC | 0.0699
156 | TCCTACGA | -0.09
157 | TTCCCGAA | 0.0883
158 | AAGCTCTC | -0.0774
159 | AGTGGGGA | -0.104
160 | ACTGTGTA | 5e-05
161 | ATATTTTG | 0.102
162 | AGTTACTC | 0.082
163 | ACGCTATA | -0.066
164 | ATATATAA | 0.249
165 | CCTTTTAG | 0.308
166 | AAATTGAC | 0.0363
167 | CCCGTATA | 0.0661
168 | ATGTCTCA | -0.0296
169 | ATGCGAGC | -0.223
170 | CCACACTC | -0.098
171 | ACTCTGCT | -0.322
172 | GCACGTAC | -0.297

— the supplement of paper PMC3334620
